Data: the supplement of paper PMC11417369
± gives the standard deviation of the averaged measurements. The list shows a part of the results.

tested on: PfAP2-LT AP2 domain (GST-tagged); assay: gcPBM binding intensity (ln(normalized median fluorescence intensity)); higher = stronger DNA binding
How it was run: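 For binding intensity, the highest Masliner-normalised natural-log median intensity across replicate spots of either probe orientation was taken. Protein bound to the array was stained with Alexa488 anti-GST antibody and scanned at 488 nm. The protein, GST-tagged P. falciparum DNA-binding domains from E. coli at about 25 μg on average, had been applied for 1 h to an Agilent 4 × 180k array of primer-extended double-stranded 36-bp intergenic genomic probes and negative controls.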

Row | Sequence | gcPBM binding intensity (ln)
1 | ATATGTAAAGAAAAGTAAACACTAATTTTAAACAAT [CACACA_negctrl_site11] | 8.91 ± 0.54
2 | TATATATATGTGCAGTGTACTTTTTTTTTCTGTAAG [XGTACX_site3424] | 8.71 ± 0.45
3 | GAGAAGACATTACACAGTACCCAGGAAATCTACGGA [XGTACX_site1993] | 8.98 ± 0.48
4 | TATAAAGGTGAAATTTGTACATAGTCATTTTTTAAT [XGTACX_site4811] | 8.52 ± 0.42
5 | TCGACAAATGTATATACACACATTTGTAACATAAAT [CACACA_site560] | 9.18 ± 0.24
6 | TTCTTTTTTAAACACACACACACAAGAAAATATATA [CACACA_site5680] | 9.66 ± 0.35
7 | TGACGAAAAAAAAGGGTGCTTAGTATAACTTTAAAG | 8.52 ± 0.47
8 | TGATTAAAAGAGGGAAAAAAAAAAAAAAAAAAAAAA [CACACA_negctrl_site896] | 8.31 ± 0.38
9 | ATTTTTTTTTTAAAATGTACATGAGAAATTGTATAT [XGTACX_site425] | 8.47 ± 0.42
10 | TTTCTTATATAAGTGTACTAAAATATATATATGCAA [GTGCAC_negctrl_site546] | 8.38 ± 0.44
11 | TAAAAAAATAAATATACACACATATATAAATATGTA [CACACA_site6641] | 8.77 ± 0.36
12 | TATATTATTAATTAAGCACACATTATTTTTATAATA [CACACA_site3982] | 8.51 ± 0.43
13 | TAACATAATATAGACACACACATGTACATATGCCAA [CACACA_site1842] | 9.49 ± 0.41
14 | CAAAGATATATAAACACACAAATATAACATATATAC [CACACA_site7395] | 9.18 ± 0.42
15 | TATGAATATCTATACACACACATATATATACTCACT [CACACA_site1597] | 9.39 ± 0.36
16 | TATATTATTATATATTGTACTTTTTATATTTGCATT [XGTACX_site2978] | 8.88 ± 0.53
17 | TACACTTGTAATTGCGTGCACGAAGGATATATATAT | 9.13 ± 0.32
18 | TATGTATATTTTTTTGTGCACATATATATATATATA | 9.4 ± 0.2
19 | ATATAATTATATAAATGTACTCATTCGTTATTTTGC [XGTACX_site6132] | 8.76 ± 0.42
20 | AAATATAATAATAATTTAAGAATCTAATATTTTATA [CACACA_negctrl_site831] | 8.1 ± 0.49
21 | TACTATATCGATACCAGTACAGATTTATAAATAATA [XGTACX_site7491] | 8.63 ± 0.45
22 | TTATAAAAAAAAATAACACACAGACATAAGAATAAA [CACACA_site9383] | 9.1 ± 0.42
23 | TATATTAAGTATAAGACACACATATAGTAATAGAAA [CACACA_site5176] | 9.04 ± 0.36

Row | Sequence | gcPBM binding intensity (ln)
24 | GGTATACATATTAAATGTACATATTTTAACAATAAG [XGTACX_site4868] | 8.74 ± 0.46
25 | ATATAACTTTTCTTAACACACAAAAAACAAAAATAA [CACACA_site2380] | 8.68 ± 0.49
26 | AAGTGTCAAAGTTACACACACAAACTTGTCATTTTT [CACACA_site837] | 9.38 ± 0.33
27 | TTACACAAACAAATTATGGACACATAAGTAAAAGGA [CACACA_negctrl_site1622] | 8.94 ± 0.43
28 | TTATCCATAAAAAAGTGTACGCACTAAAATTGAAAA [XGTACX_site5460] | 8.54 ± 0.46
29 | GAAAAAAGAAAAAAAAGTACATATATTTAATAAGAC [XGTACX_site6912] | 8.82 ± 0.57
30 | TATAATTCATATGAAACACACATTTATTTTAATTAC [CACACA_site3686] | 8.71 ± 0.4
31 | TAGGCGTTTAATAAAAGTACCCACACATATATTATT [XGTACX_site1932] | 8.88 ± 0.4
32 | TTTATTATCGTTCTCATACACACAAAATATACATAC [CACACA_site2642] | 9.06 ± 0.41
33 | AAATATATATGTGGGGGTACTAATAAAAAAACCCCT [XGTACX_site2657] | 8.84 ± 0.42
34 | ATTTAACAACTTCAAACACACAATATATATATATAT [CACACA_site2093] | 9.07 ± 0.46
35 | AATTCAAATATAAATACACACACATAGCTACAAAAT [CACACA_site9386] | 9.48 ± 0.27
36 | CATAAATTAATAGTCACACACGTATTTTTTATATAT [CACACA_site2526] | 8.96 ± 0.37
37 | AAAAAAAAAAAAAGGTGTACATGCAAAATAAATTCT [XGTACX_site4592] | 9.03 ± 0.42
38 | AAATAAATAAGAAACGCATGCATATATAATATATAA [TGCATGCA_site326] | 9.22 ± 0.34
39 | GTTATTTATAGACACACACACATGCATGCACATATA [CACACA_site6204] | 9.78 ± 0.25
40 | CATATGTTCATCATAGCACACATATATAAATTACAA [CACACA_site9177] | 9 ± 0.44
41 | TATATATATATATATTGTACATAATGTATATATGTT [XGTACX_site3448] | 9.15 ± 0.3
42 | TATAGGTATGTATGTACACACAAAAAATGGAATATA [CACACA_site7704] | 9.38 ± 0.39
43 | CATATATATTTGTTCACACACACACCCAAAAAAAAA [CACACA_site2476] | 9.61 ± 0.28
44 | GAAAAAGTTATAAATTGTACTAAATATTAAATATTG [XGTACX_site7890] | 8.4 ± 0.56
45 | TTTAAAATGGGACTTTGAAAAAAAAAAAAAAAAACA [TGCATGCA_negctrl_site111] | 8.22 ± 0.48
